Screen size: about 110,000 compounds; about 230 (0.21%) showed an effect of 50% or more. The list shows a part of the results.
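Also: 30 min substrate incubation versus DMSO and 10 µM JCP410 controls.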

In the assay the target is DPAP1 (Plasmodium falciparum, UniProt Q8IIJ9). Briefly: primary screen, percent inhibition; read by cleavage of a fluorogenic dipeptide substrate; higher = more effect of the substance. The arrangement: species or system P. falciparum D10 trophozoite lysates; single well.
DPAP1, sequence (Q8IIJ9 whole entry, looked up): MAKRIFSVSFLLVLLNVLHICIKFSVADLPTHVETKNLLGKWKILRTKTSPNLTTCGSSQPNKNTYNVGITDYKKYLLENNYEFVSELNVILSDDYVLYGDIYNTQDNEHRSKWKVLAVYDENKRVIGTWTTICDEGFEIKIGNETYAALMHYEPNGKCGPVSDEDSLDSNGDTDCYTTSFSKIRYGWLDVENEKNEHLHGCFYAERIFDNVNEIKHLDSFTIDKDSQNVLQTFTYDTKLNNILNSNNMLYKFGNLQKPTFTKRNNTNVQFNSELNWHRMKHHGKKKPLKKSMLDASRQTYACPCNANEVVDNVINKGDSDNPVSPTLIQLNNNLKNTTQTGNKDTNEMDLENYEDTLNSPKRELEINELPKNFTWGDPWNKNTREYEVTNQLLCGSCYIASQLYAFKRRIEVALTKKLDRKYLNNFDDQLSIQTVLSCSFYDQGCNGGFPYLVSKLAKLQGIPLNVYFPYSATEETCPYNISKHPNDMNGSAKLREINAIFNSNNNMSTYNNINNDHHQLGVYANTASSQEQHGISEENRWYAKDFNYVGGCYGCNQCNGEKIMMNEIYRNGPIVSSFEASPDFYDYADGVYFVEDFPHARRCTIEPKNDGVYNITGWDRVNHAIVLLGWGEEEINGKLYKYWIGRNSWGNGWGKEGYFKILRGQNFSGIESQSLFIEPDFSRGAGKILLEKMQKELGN
For `Cc1cccc2sc(NC(=O)COc3ccccc3)nc12`, the “% Inhibition @ 10 uM” value is -3.45%.
With `O=C(Cn1c(SCc2ccccc2)nc2ccccc21)N1CCOCC1` the figure was -5.51%.
With `CC(=O)NCCCCCc1nc2ccccc2n1Cc1ccccc1` the figure was -3.49%; with `COc1ccccc1NC(=O)c1ccccc1NC(=O)c1cc(OC)c(OC)c(OC)c1`, -0.795%; with `O=C1CC(=O)N2N=C(c3ccccc3)SC2=N1`, 1.88%.
With `O=C(/C=C/c1ccc([N+](=O)[O-])cc1)c1ccc(-c2ccccc2)cc1` the figure was -0.239%; with `O=C(/C=C/c1ccc(Cl)cc1)NCCc1nc2ccccc2[nH]1`, 4.1%; with `CCOc1ccc(N2C(=O)/C(=C/c3ccco3)C(=O)NC2=S)cc1`, 5.2%.
As for `CCOC(=O)c1cnn(-c2nc(C)nc3sc(-c4ccccc4)cc23)c1/N=C/N(C)C`, the “% Inhibition @ 10 uM” value is reported as -3.41%.
For the compound `CNC(=S)N(CCc1c(C)[nH]c2ccccc12)Cc1cccs1`, the “% Inhibition @ 10 uM” value was 2.75%.
Consider `CC1CCCC(C)N1CCNC(=O)CCn1nc(-c2ccc(Cl)cc2)ccc1=O` (centres unmarked), for which the “% Inhibition @ 10 uM” value is 1.62%.
As to `Cc1c(CNCCN(C)C)c(C(=O)O)c(C)n1Cc1ccccc1F`, the “% Inhibition @ 10 uM” value is -5.49%.
In the case of `CC(NS(=O)(=O)c1c(Cl)cccc1Cl)C(=O)O` (centres unmarked), the “% Inhibition @ 10 uM” value is on record as 3.16%.
With `CC(C)(C)c1ccc(OCC(=O)N(Cc2cccs2)C2CCS(=O)(=O)C2)cc1` (centres unmarked) the figure was -5%; with `CCC(=O)Nc1c(N)sc2nc(C)cc(COC)c12`, -0.0678%; with `Cc1ccccc1C1=N/C(=C\c2ccc3ccccc3c2)C(=O)O1`, 2.72%.
To `O=c1oc2ccccc2cc1-c1nc(-c2ccc(Cl)cc2)no1` belongs -4.63%; to `c1ccc(CCN2CCN(Cc3ccccc3)CC2)cc1`, -3.57%; to `COc1ccc(/C=c2\sc3nncn3c2=O)cc1`, 4.95%.
`O=C1CC(N2CCN(c3cccc(Cl)c3)CC2)C(=O)N1c1ccc(F)cc1` (centres unmarked): the “% Inhibition @ 10 uM” value is 0.144%.
To `CC(C)CCNC(=O)Cn1cnc2c1c(=O)n(C)c(=O)n2C` belongs -5.06%; to `CCOC(=O)C1CCN(c2ccc(C(F)(F)F)cn2)CC1`, -0.711%.
To `O=C(Nc1ccccc1-c1nc2ccccc2s1)c1ccc(S(=O)(=O)N2CCCCC2)cc1` belongs 2.86%.
On to `CC(C)Cn1c(CCC(=O)O)ccc1-c1ccccc1`, for which the “% Inhibition @ 10 uM” value is 3.94%.
To `COc1ccc(OC)c(NC(=O)C(C)NS(=O)(=O)c2ccc(C)cc2)c1` (centres unmarked) belongs -3.87%; to `CC1=Nc2c([nH]c3ccccc23)-c2cc(C)ccc2N1`, 9.92%; to `CC(=O)NCCSc1c(-c2ccc(C)cc2)[nH]c2ccccc12`, -0.228%.
Turning to `c1ccc(CN2CCN(C3Cc4ccccc4C3)CC2)cc1`, the “% Inhibition @ 10 uM” value is -3.27%.
With `CCCc1cc(O)n2nc(-c3cccnc3)nc2n1` the figure was 2.62%.
`Cc1ccc(NC(=O)c2ccccc2)cc1F`: the “% Inhibition @ 10 uM” value was -1.05%.
With `Cc1ccccc1C(=O)NC1=NC(=O)C(C)S1` (centres unmarked) the figure was 3.59%; with `COc1ccc(C)cc1N(CC(=O)Nc1ccc2ccccc2c1)S(C)(=O)=O`, -3.46%.
With `Cc1cccc(-c2nnc(C3CCN(S(=O)(=O)c4c(F)c(F)c(F)c(F)c4F)CC3)o2)c1` the figure was -2.88%; with `CCC(C)NC(=O)CCNS(=O)(=O)c1ccc(OC)cc1` (centres unmarked), -4.06%; with `CN(C)S(=O)(=O)c1ccc(-c2csc(-c3ccccc3)n2)cc1`, -2.19%.
Consider `COc1nccnc1NS(=O)(=O)c1ccc(NC(=O)c2ccccc2Cl)cc1`, for which the “% Inhibition @ 10 uM” value is listed as 1.24%.
As to `CC(=O)c1ccc(N2CCN(C(=O)c3ccc(Br)cc3)CC2)c(F)c1`, the “% Inhibition @ 10 uM” value is -2.28%.
With `O=C(Nc1ccc(-c2ccc([N+](=O)[O-])cc2)cc1)c1ccc(F)cc1` the figure was 5.64%; with `CC/C(=N/OC(=O)c1cccc(C)c1)C(=O)c1cccs1`, 0.343%; with `Cc1nn(CC(=O)NCCN2CCOCC2)c(=O)c2nn(-c3ccccc3)c(C)c12`, -7.53%.
To `CCCc1nn2c(=O)cc(COc3ccc(/C=C4\C(=N)N5N=C(C)SC5=NC4=O)cc3)nc2s1` belongs -3.95%; to `Cc1ccc2ncc(NC(=O)N3CCCCCC3)c(O)c2c1`, -2.84%.
In the case of `CCCCCCOc1ccc(CN(CCO)CCO)cc1`, the “% Inhibition @ 10 uM” value is -2.95%.
To `CCOc1ccc(C2C3=C(CC(C)(C)CC3=O)OC3=C2C(=O)CC(C)(C)C3)cc1` belongs -5.15%.
Consider `Fc1ccc(N2CCN(Cc3cccc4ccccc34)CC2)cc1`, for which the “% Inhibition @ 10 uM” value was -3.71%.
To `COc1ccc(NS(=O)(=O)c2cccc(C(=O)Nc3ccc(C(=O)O)cc3)c2)cc1` belongs -3.66%; to `O=C(NCc1nc2ccccc2n1Cc1c(F)cccc1Cl)c1ccccc1`, -11.8%; to `Cc1nc2sc(C(=O)c3ccccc3)c(N)c2c(C)c1C`, -1.97%.
To `Cc1cccc(-c2nc(CSCC(=O)NCc3ccccc3)c(C)o2)c1` belongs 2.16%.
With `CC(C)N(C(=O)Nc1cccc(Cl)c1)C(C)C` the figure was 1.55%.
In the case of `Cc1ccc(OC(C)C(=O)Nc2ccccc2Cl)cc1` (centres unmarked), the “% Inhibition @ 10 uM” value was -0.95%.
`Cn1cnc2c(=O)oc3ccc(S(=O)(=O)NCc4ccccc4)cc3c21`: the “% Inhibition @ 10 uM” value was -1.14%.
For `FC(F)(F)c1cccc(N2CCN(Cc3cccc(Cl)c3)CC2)c1`, the “% Inhibition @ 10 uM” value is on record as -3.65%.
Consider `Cc1cccc(OCCCc2c(C)n[nH]c2C)c1`, for which the “% Inhibition @ 10 uM” value worked out at 1.9%.
As for `COc1ccc(/C=C2\C(=N)N3N=C(S(C)(=O)=O)SC3=NC2=O)cc1`, the “% Inhibition @ 10 uM” value is given as -5.27%.
On to `COC(=O)c1ccc(/C=C/c2nc3cc(C)c(C)cc3o2)cc1`, for which the “% Inhibition @ 10 uM” value is given as -7.99%.
With `N#C/C(=C\c1ccc(Cl)cc1)C(=O)Nc1nc2c(s1)CN(Cc1ccccc1)CC2` the figure was 3.79%; with `Cc1ccc(NC(=O)c2ccc3c(c2)C(=O)N(CC(C)C)C3=O)c(C(=O)O)c1`, -0.796%; with `N#C/C(=C\c1c(Oc2ccccc2Cl)nc2ccccn2c1=O)C(=O)NCCc1ccccc1`, -4%.
With `CC(C)Nc1nc(Cl)nc(NC(C)(C)CO)n1`, the “% Inhibition @ 10 uM” value is reported as -1.82%.
With `Cc1ccsc1CN(C)CCN(C)C`, the “% Inhibition @ 10 uM” value was 4.55%.
As for `CCN(CCN(C)C)Cc1ccccc1C`, the “% Inhibition @ 10 uM” value is on record as -1.64%.
Turning to `COc1ccc(N2CCN(C(=O)c3ccc4ccccc4n3)CC2)cc1`, the “% Inhibition @ 10 uM” value is given as -1.36%.
Consider `O=C1CC(c2ccc(Cl)cc2)Nc2nc3ccccc3n21` (centres unmarked), for which the “% Inhibition @ 10 uM” value is 3.35%.
For the compound `CC(C)C[C@H](OC(=O)N[C@@H]1C[C@H]1c1ccccc1)C(=O)NCC#N`, the “% Inhibition @ 10 uM” value is recorded as 3.66%.

Values taken from paper PMC6919601, “Identification of Plasmodium dipeptidyl aminopeptidase allosteric inhibitors by high throughput screening” (PLoS ONE, 2019).
